Test results taken from the BET-seq Pho4 binding data (Le et al. 2018).
The list shows a part of the results. Values were computed here from the reads of four pooled replicates and scatter widely.

target: T1, Pho4 (S. cerevisiae) (UniProt P07270); test: relative binding free energy (BET-seq); higher = weaker binding; settings: reference: library average
T1 sequence: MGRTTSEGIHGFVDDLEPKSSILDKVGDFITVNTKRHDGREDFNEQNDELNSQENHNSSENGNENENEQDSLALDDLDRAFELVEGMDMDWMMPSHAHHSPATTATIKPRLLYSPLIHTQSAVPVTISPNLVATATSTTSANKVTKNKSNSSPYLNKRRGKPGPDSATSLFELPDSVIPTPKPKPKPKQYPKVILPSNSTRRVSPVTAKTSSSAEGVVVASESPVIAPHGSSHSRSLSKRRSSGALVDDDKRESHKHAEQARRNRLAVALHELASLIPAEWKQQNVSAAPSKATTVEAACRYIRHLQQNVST

Sequence | relative binding free energy
GATGTCACGTGCGCGT | 0.01 kcal/mol
TTGATCACGTGGATAT | 0.18 kcal/mol
GTCGGCACGTGTGCTT | -0.06 kcal/mol
CGGGCCACGTGGGGTA | -0.36 kcal/mol
TGGTTCACGTGCGTGT | 0.15 kcal/mol
CAGGGCACGTGGTTTA | -0.2 kcal/mol
TTACGCACGTGATATG | 0 kcal/mol
TTGTGCACGTGCAGAT | -0.16 kcal/mol
GCTTTCACGTGTGGAG | 0.37 kcal/mol
TGTTACACGTGGGCGA | -0.09 kcal/mol
AGGGTCACGTGGTCCG | 0.13 kcal/mol
GTAAGCACGTGTGAGA | 0.01 kcal/mol
TGATGCACGTGGGTAC | -0.14 kcal/mol
TGGGGCACGTGTTAAA | 0 kcal/mol
GAGGGCACGTGATCGT | -0.02 kcal/mol
TAAAGCACGTGTGCTT | -0.12 kcal/mol
GGGAACACGTGGGTCA | 0.09 kcal/mol
GAGTTCACGTGCCGTG | 0.26 kcal/mol
GATTGCACGTGTGGCG | 0.09 kcal/mol
GGCTACACGTGTTTGT | 0.15 kcal/mol
TAAGGCACGTGTAAAT | 0.09 kcal/mol
AGGTTCACGTGTTCCG | 0.28 kcal/mol
GTTAACACGTGTTGAT | 0.16 kcal/mol

Sequence | relative binding free energy
GGGTTCACGTGCTAGG | 0.23 kcal/mol
GATGCCACGTGGCGGT | -0.08 kcal/mol
AAAAGCACGTGGGGGC | -0.29 kcal/mol
GTGTACACGTGGTAGT | 0.03 kcal/mol
CGGTGCACGTGTACGT | 0.15 kcal/mol
TTGGTCACGTGGAGGA | 0.11 kcal/mol
GTGGGCACGTGTGTCC | -0.05 kcal/mol
CCTTGCACGTGTGGGT | 0 kcal/mol
GGGTTCACGTGGACTG | 0.24 kcal/mol
TCAATCACGTGGGGAA | 0.16 kcal/mol
TCGTTCACGTGTTGAT | 0.12 kcal/mol
CTCGGCACGTGGGCTG | -0.15 kcal/mol
CTAGACACGTGAGGTT | 0.22 kcal/mol
TTAACCACGTGGGTTT | -0.19 kcal/mol
TGGTGCACGTGTAATG | 0.16 kcal/mol
TTGTGCACGTGAGCGC | 0.14 kcal/mol
AGAATCACGTGTGGAT | 0.25 kcal/mol
TGGTTCACGTGGCTTT | 0.24 kcal/mol
ATGGGCACGTGTCTTG | -0.02 kcal/mol
TAGGTCACGTGTGCTC | 0.11 kcal/mol
TCGAGCACGTGAGGGG | 0.06 kcal/mol
TAAGTCACGTGGTTTC | 0.08 kcal/mol
AAATGCACGTGTGGTC | 0.01 kcal/mol

Sequence | relative binding free energy
TCTGTCACGTGGAAGG | 0.1 kcal/mol
ATTATCACGTGGTCGG | 0.08 kcal/mol
AAGCTCACGTGGGTTT | 0.01 kcal/mol
GTTTTCACGTGAGTAG | 0.42 kcal/mol
GCTAGCACGTGAGTGT | 0.21 kcal/mol
GGTGTCACGTGCCGGT | -0.02 kcal/mol
GATTTCACGTGATAGG | 0.46 kcal/mol
GAGTCCACGTGTGGAG | 0.24 kcal/mol
GGTTCCACGTGTGTTC | 0.2 kcal/mol
AGGGTCACGTGTAGCT | 0.14 kcal/mol
TGCGTCACGTGATAGT | 0.21 kcal/mol
TTTTCCACGTGGCGGG | 0.14 kcal/mol
TTTATCACGTGGTTTC | 0.22 kcal/mol
TTTATCACGTGTTCTA | -0.02 kcal/mol
CTGTCCACGTGAGGTT | 0.22 kcal/mol
GTTATCACGTGGTACT | 0.09 kcal/mol
TACGGCACGTGGGTTA | -0.18 kcal/mol
GGGCTCACGTGTGTTG | 0.25 kcal/mol
TTTCACACGTGAGGGG | 0.15 kcal/mol
TTGATCACGTGGGGCC | -0.02 kcal/mol
TTGTACACGTGATGAT | 0.15 kcal/mol
GTGGACACGTGGTGGA | 0.07 kcal/mol
CAGTTCACGTGGGGAA | 0.1 kcal/mol

Sequence | relative binding free energy
TAGAACACGTGGTGTA | -0.21 kcal/mol
GTCTGCACGTGGCGTT | -0.02 kcal/mol
CTTTACACGTGACGGG | 0.38 kcal/mol
CTAGGCACGTGCTGTT | -0.2 kcal/mol
TGTGACACGTGGTGCA | -0.2 kcal/mol
AACGTCACGTGGGATT | 0 kcal/mol
AGGGTCACGTGAAGCG | 0.23 kcal/mol
TATGTCACGTGCTGAT | 0.05 kcal/mol
AGTTTCACGTGTATAG | 0.24 kcal/mol
GGGGACACGTGAAGAG | 0.28 kcal/mol
GCGGGCACGTGGAAGG | 0 kcal/mol
GCAGGCACGTGTGGCT | -0.06 kcal/mol
TGGCTCACGTGTTGCT | 0.16 kcal/mol
TTCATCACGTGGATAT | 0.15 kcal/mol
GGGCGCACGTGGATAT | 0 kcal/mol
TAAGGCACGTGGTGGA | -0.13 kcal/mol
CTTTTCACGTGTATGA | 0.29 kcal/mol
TATTACACGTGTACTG | 0.05 kcal/mol
CGTGTCACGTGGAGGC | 0.15 kcal/mol
GAAGACACGTGGTTTG | -0.09 kcal/mol
GTGAGCACGTGGGCTT | -0.12 kcal/mol
ATTTTCACGTGGGAAT | 0.3 kcal/mol
TTTAACACGTGTCGGA | 0.04 kcal/mol

Sequence | relative binding free energy
CCGGTCACGTGTGGGA | 0.1 kcal/mol
ACTGGCACGTGGTGGC | -0.16 kcal/mol
AGGTACACGTGAGTGT | 0.23 kcal/mol
TTAATCACGTGCTAGT | 0.07 kcal/mol
TGTAGCACGTGCTAGT | -0.21 kcal/mol
AGCTTCACGTGGTTGT | 0.25 kcal/mol
TGTAGCACGTGTTGTT | -0.01 kcal/mol
CTGGTCACGTGGGGGC | -0.09 kcal/mol
AAGGCCACGTGAGGTT | 0.12 kcal/mol
TATTTCACGTGGTAAT | 0.19 kcal/mol
AAGGGCACGTGTATGT | -0.06 kcal/mol
TGGATCACGTGATGAA | 0.35 kcal/mol
GGGGACACGTGTAGAG | 0.16 kcal/mol
ATCGGCACGTGGGGTT | -0.34 kcal/mol
TAGATCACGTGGGGTC | 0 kcal/mol
GGACTCACGTGTAGGG | 0.02 kcal/mol
TGTACCACGTGGGTGT | -0.2 kcal/mol
GCTTTCACGTGGAGTA | 0.29 kcal/mol
GGGCGCACGTGTTCGG | -0.07 kcal/mol
GGAACCACGTGTAGGG | -0.04 kcal/mol
AGATGCACGTGAGAGG | 0.31 kcal/mol
ATGAGCACGTGTATGT | -0.12 kcal/mol
AGGAGCACGTGCAGAG | 0 kcal/mol
